This data set deals with ATP. In words: switch fluorescence ratio, 500 uM ATP over buffer (Cy3 cluster intensity, sum of 5 cycles each) (fold (ratio)); higher = stronger signal-on switching upon ATP binding; sequences stand for … in TCGTCGGCAGCGTCAGATGTGTATAAGAGACAGTTTTTTTTTTTTTTTTTTTTTTTTT…TC. The following applies: aptamer strand: ATP DNA aptamer (quencher-CACCTGGGGGAGTATTGCGGAGGAAGG + anchor), 100 nM annealed; ATP concentration: 500 uM; one replicate. The method, boiled down:
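Between each of five buffer/ATP cycles, the flow-cell was stripped with NaOH and re-annealed. Each cycle imaged Cy3-labelled switching-strand clusters, annealed to 100 nM quencher-labelled ATP aptamer on a modified Illumina MiSeq flow-cell, first in selection buffer and then after 15 min with 500 uM ATP at 22 °C. The fluorescence ratio is summed target-cycle over summed buffer-cycle Cy3 intensity per cluster, averaged per switch-domain sequence, with clusters outside 100-1000 RFU excluded.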

Sequences with one replicate were seen in a single cluster, so their values are uncertain.
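Also: ATP exposure 15 min at 22 °C before imaging.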

On to GCTTCCAAGA, for which the switch fluorescence ratio came out at 1.17.

As for GGATTACGTT, the switch fluorescence ratio worked out at 0.989.

CTACAAGTAC: the switch fluorescence ratio worked out at 1.62.

For the sequence TAAGTTTCAG, the switch fluorescence ratio stood at 1.02.

Regarding AACAGACTAC, the switch fluorescence ratio turned out to be 1.09.

Turning to CGATCTGGA, the switch fluorescence ratio was 0.997.

On to CCTATACGAA, for which the switch fluorescence ratio was determined as 1.09.

For the sequence TCTGATTTTT, the switch fluorescence ratio was 1.02.

In the case of AGTGGAAAA, the switch fluorescence ratio came out at 0.989.

TCATACGCCG: the switch fluorescence ratio worked out at 0.954.

As to TGTGTCGTTT, the switch fluorescence ratio was determined as 0.972.

Consider ATCAAGGATT, for which the switch fluorescence ratio came out at 0.962.

With TTGCGGTAAC, the switch fluorescence ratio came out at 1.01.

Take ACCTATTGCA: the switch fluorescence ratio stood at 1.07.

Turning to AGTCATTATC, the switch fluorescence ratio is 0.965.

Regarding GCTATCTCGT, the switch fluorescence ratio came to 0.963.

Turning to GATGAACATT, the switch fluorescence ratio was 1.

TTATTAGAG: the switch fluorescence ratio came to 1.05.

As to CGGGCCCCCT, the switch fluorescence ratio was 1.04.

Consider ACACTCGGTA, for which the switch fluorescence ratio was 1.04.

Turning to TATGATGACC, the switch fluorescence ratio was 1.01.

Consider GGTCAACGCA, for which the switch fluorescence ratio was determined as 1.03.

In the case of CTTCTTCATC, the switch fluorescence ratio stood at 1.05.

As to ACACGCCCAG, the switch fluorescence ratio amounted to 1.33.

Turning to TTCTTTCCGA, the switch fluorescence ratio was found to be 1.09.
